Data on five molecules can be found in article PMC3784504.

By UniProt entry, the sequences of proteins in these tests, tags left out.
UniProt P23696: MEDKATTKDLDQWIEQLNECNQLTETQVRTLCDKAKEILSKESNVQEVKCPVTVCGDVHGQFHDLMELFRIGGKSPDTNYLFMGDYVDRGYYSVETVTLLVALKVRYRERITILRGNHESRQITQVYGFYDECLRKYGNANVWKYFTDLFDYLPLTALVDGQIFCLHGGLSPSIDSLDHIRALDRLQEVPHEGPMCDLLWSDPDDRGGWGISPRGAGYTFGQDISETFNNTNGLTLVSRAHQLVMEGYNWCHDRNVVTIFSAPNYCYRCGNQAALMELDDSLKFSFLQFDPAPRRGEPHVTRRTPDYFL

Results are given in words; binding and its absence hold for the method and conditions named. For some of these results: In cells and extracts the contact can be indirect. Some binding calls cover weakened binding; strength is not graded here. Sequences can lack the tags named with a protein.

Assay [1] concerns the target T1, recombinant HA-tagged NAP1 (Drosophila) (UniProt Q9W1G7).
T1 sequence: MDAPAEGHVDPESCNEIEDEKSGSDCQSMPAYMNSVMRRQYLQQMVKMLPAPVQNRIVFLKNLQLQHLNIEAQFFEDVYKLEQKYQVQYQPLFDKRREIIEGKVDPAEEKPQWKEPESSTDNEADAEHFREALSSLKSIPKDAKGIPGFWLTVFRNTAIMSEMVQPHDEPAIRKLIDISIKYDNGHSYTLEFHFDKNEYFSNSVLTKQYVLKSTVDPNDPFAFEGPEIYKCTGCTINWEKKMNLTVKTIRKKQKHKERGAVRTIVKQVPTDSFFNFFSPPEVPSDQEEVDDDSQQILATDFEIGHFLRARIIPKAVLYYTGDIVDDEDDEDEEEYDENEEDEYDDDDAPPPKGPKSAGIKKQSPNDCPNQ
As to the kind of experiment: pull-down; HA-NAP1 held on protein A beads with anti-HA antibodies; [35S]methionine-labelled in vitro translated proteins added; washes with 600 mM KCl, 0.1% NP40; autoradiography; only the target purified.

The target of assay [2] is T2, histone chaperone NAP1 (Drosophila (endogenous in embryos and S2 cells)) (UniProt Q9W1G7).
T2 sequence: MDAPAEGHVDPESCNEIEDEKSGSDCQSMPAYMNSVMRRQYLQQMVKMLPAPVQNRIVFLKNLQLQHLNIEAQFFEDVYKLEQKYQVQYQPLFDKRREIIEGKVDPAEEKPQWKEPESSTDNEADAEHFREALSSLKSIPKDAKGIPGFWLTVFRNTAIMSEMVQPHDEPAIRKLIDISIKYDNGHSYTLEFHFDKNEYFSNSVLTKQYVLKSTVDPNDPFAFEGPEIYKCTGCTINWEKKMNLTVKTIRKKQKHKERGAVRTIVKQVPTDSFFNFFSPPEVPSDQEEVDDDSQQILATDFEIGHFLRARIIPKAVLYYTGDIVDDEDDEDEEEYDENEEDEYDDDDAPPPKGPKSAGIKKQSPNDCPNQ
As to the kind of experiment: co-IP; IP of SA, NAP1 or PP2A from Drosophila embryo nuclear extract; washes with 600 mM KCl, 0.1% NP40; immunoblot; mock IP with pre-immune serum. For orientation: In western blotting, separated proteins are transferred to a membrane and probed.

Assay [3] has as its target T2, histone chaperone NAP1 (Drosophila (endogenous in embryos and S2 cells)). Nature of the assay: SEC; Sephacryl S-300 of the POROS-heparin 0.4 M KCl fraction of embryo nuclear extract, HEMG/100 pH 7.6; fractions immunoblotted. A general note: SEC sorts molecules by how far they enter the pores of the column.
Assay [4] shares this target. As to the kind of experiment: co-IP; IPs of NAP1 and SA from pooled high molecular weight S-300 fractions 12-14 (about 1.5 MDa) of embryo nuclear extract; immunoblot.

For the molecule “in vitro translated PP2A catalytic subunit (from UniProt P23696 1-309) (enzyme)”, in assay [1], the binding entry is on record as “no binding”.

B1: in vitro translated SMC3 (protein, UniProt Q9VXE9 1-1200)
chain: MHIKQIIIQGFKSYKDQTVVEPFDKRHNVVVGRNGSGKSNFFYAIQFVLSDEFTHLRPEQRQSLLHEGTGARVISAYVEIIFDNSDNRVPIDKEEIFLRRVIGAKKDQYFLNKKVVPRNEVVNLLESAGFSSSNPYYIVKQGKINQMATAADSYRLKLLREVAGTRVYDERKEESLNLLRETDSKVEKISEYLKTIEDRLQTLEEEKEELKEYQKWDKTRRTLEYIRYETELKDTKKALDELQLQRKSSSDKKKIYNIEIQKAQEKIKDVQKNLKEAKKKVQSTKEERSVLMTEQQQLLREKTKLDLTIVDLNDEVQGDNKSKERADQELKNLKVTIAEREKELDDVKPKYEAMKRKEEDCSRELQLKEQKRKELYAKQGRGSQFSSREDRDKWITNELKSISKQTRDKIAHHAKLVEDLKKDATSEKDLGQKIEEHSSELEQLRLQIDEHNKKYYELKKTKDQHQSMRNELWRKETQMTQQLQTHKEELSRADQALRSMAGKPILNGCDSVRKVLDSFVERGGQSAEIARAYYGPVIENFSCDKTIYTAVEVTAANRLFHHIVESEYEGTQILKEMNKLKLPGEVTFMPLNRLQVKIHDYPDDPDSIPMISKLKYDEQHDKALRYIFGKTLICRNLERATELAKSTGLDCVTLDGDQVSSKGSLTGGYFNTSRSRLEMQKKRTEYTSQIAEFEKKLSKLRNELKSTENNINSIVSEMQKTETKQGKSKDVFEKVQGEIRLMKEELVRIEQYRAPKERSLAQCKASLESMTSTKSSLEAELKQELMSTLSSQDQREIDQLNDDIRRLNQENKEAFTQRMQFEVRKNKLDNLLINNLFRRRDELIQALQEISVEDRKRKLNNCKTELVSAEKRIKKVNSDLEEIEKRVMEAVQLQKELQQELETHVRKEKEAEENLNKDSKQLEKWSTKENMLNEKIDECTEKIASLGAVPLVDPSYTRMSLKNIFKELEKANQHLKKYNHVNKKALDQFLSFSEQKEKLYRRKEELDIGDQKIHMLIQSLEMQKVEAIQFTFRQVAQNFTKVFKKLVPMGAGFLILKTKDNEGDEMEKEVENSDAFTGIGIRVSFTGVEAEMREMNQLSGGQKSLVALALIFSIQKCDPAPFYLFDEIDQALDAMHRKAVANMIHELSDTAQFITTTFRPELLENAHKFYGVRFRNKVSHIDCVTREEAKDFVEDDSTHA
modifications: [35S]methionine label
As to B1, in assay [1], the binding entry is “binds”.

B2: cohesin subunit SMC1 (protein, UniProt Q9VCD8 1-1238)
chain: MTEEDDDVAQRVATAPVRKPDDETAFLEYIEMENFKSYRGHIVVGPLKQFNAVIGPNGSGKSNFMDAISFVMGEKTSSLRVKRLNDLIHGSSIGKPVSRSCYVTAKFVLNEERHMDFQRAVIGGSSEYRINGESVSSSTYLNKLEKIGINVKAKNFLVFQGAVENIAMKTPKERTALFEEISGSGLLKDDYNRLKQEMIVAEEETQFTYQKKKGIAAERKEAKHEKMEADRYTRLQNEYNEKQVEYQLFRLFHVERDIRKFTSDLEVRQQEVKAVEQRKEAADEILREKKKDAGKITRDLAKIDQEIREFETQMNKRRPLYIKAKEKVTHCKKKLISLQKTLETAREADNAHQSDIRKLEKQLADVEALKKRFEDEIENESQRRGKSVNMEEGLVQEYDRLKQEAEATATQYRSELDSVNREQKSEQDTLDGETNRRASVEESFKKLTLQREEAVKRRDKLMDHIKSSQAALEEQNRIKDELRRDVGTSKEKIAEKQRELEDVRDQLGDAKSDKHEDARRKKKQEVVELFKKQVPGVYDRMINMCQPTHKRYNVAVTKVLGKFMEAIIVDTEKTARHCIQILKEQMLEVETFLPLDYLQVKPLKERLRNISDPRNVRLVFDVLKFEPQEIERAVLFATGNALVCETPEDAMKVAYEIDRSRFDALALDGTFYQKSGLISGGSHDLARKAKRWDEKHMAQLKMQKERLQEELKELVKKSRKQSELATVESQIKGLENRLKYSMVDLESSKKSISQYDNQLQQVQSQLDEFGPKILEIERRMQNREEHIQEIKENMNNVEDKVYASFCRRLGVKNIRQYEERELVMQQERARKRAEFEQQIDSINSQLDFEKQKDTKKNVERWERSVQDEEDALEGLKLAEARYLKEIDEDKEKMEKFKQDKQAKKQAVDDMEEDISKARKDVANLAKEIHNVGSHLSAVESKIEAKKNERQNILLQAKTDCIVVPLLRGSLDDAVRQSDPDVPSTSAAMENIIEVDYSSLPREYTKLKDDSAFKKTHEMLQKDLQSKLDVLERIQTPNMKALQKLDAVTEKVQSTNEEFENARKKAKRAKAAFERVKNERSSRFVACCQHISDAIDGIYKKLARNEAAQAYIGPDNPEEPYLDGINYNCVAPGKRFQPMNNLSGGEKTIAALALLFSTHSFHPAPFFVLDEIDAALDNTNIGKVASYIRDHTTNLQTIVISLKEEFYGHADALVGITPGEGDCLVSNVYIMDLTTFEDT
With B2, the binding result in assay [2], in assay [3] and in assay [4] was “binds” throughout.

B3: in vitro translated SMC1 (protein, UniProt Q9VCD8 1-1238)
chain: MTEEDDDVAQRVATAPVRKPDDETAFLEYIEMENFKSYRGHIVVGPLKQFNAVIGPNGSGKSNFMDAISFVMGEKTSSLRVKRLNDLIHGSSIGKPVSRSCYVTAKFVLNEERHMDFQRAVIGGSSEYRINGESVSSSTYLNKLEKIGINVKAKNFLVFQGAVENIAMKTPKERTALFEEISGSGLLKDDYNRLKQEMIVAEEETQFTYQKKKGIAAERKEAKHEKMEADRYTRLQNEYNEKQVEYQLFRLFHVERDIRKFTSDLEVRQQEVKAVEQRKEAADEILREKKKDAGKITRDLAKIDQEIREFETQMNKRRPLYIKAKEKVTHCKKKLISLQKTLETAREADNAHQSDIRKLEKQLADVEALKKRFEDEIENESQRRGKSVNMEEGLVQEYDRLKQEAEATATQYRSELDSVNREQKSEQDTLDGETNRRASVEESFKKLTLQREEAVKRRDKLMDHIKSSQAALEEQNRIKDELRRDVGTSKEKIAEKQRELEDVRDQLGDAKSDKHEDARRKKKQEVVELFKKQVPGVYDRMINMCQPTHKRYNVAVTKVLGKFMEAIIVDTEKTARHCIQILKEQMLEVETFLPLDYLQVKPLKERLRNISDPRNVRLVFDVLKFEPQEIERAVLFATGNALVCETPEDAMKVAYEIDRSRFDALALDGTFYQKSGLISGGSHDLARKAKRWDEKHMAQLKMQKERLQEELKELVKKSRKQSELATVESQIKGLENRLKYSMVDLESSKKSISQYDNQLQQVQSQLDEFGPKILEIERRMQNREEHIQEIKENMNNVEDKVYASFCRRLGVKNIRQYEERELVMQQERARKRAEFEQQIDSINSQLDFEKQKDTKKNVERWERSVQDEEDALEGLKLAEARYLKEIDEDKEKMEKFKQDKQAKKQAVDDMEEDISKARKDVANLAKEIHNVGSHLSAVESKIEAKKNERQNILLQAKTDCIVVPLLRGSLDDAVRQSDPDVPSTSAAMENIIEVDYSSLPREYTKLKDDSAFKKTHEMLQKDLQSKLDVLERIQTPNMKALQKLDAVTEKVQSTNEEFENARKKAKRAKAAFERVKNERSSRFVACCQHISDAIDGIYKKLARNEAAQAYIGPDNPEEPYLDGINYNCVAPGKRFQPMNNLSGGEKTIAALALLFSTHSFHPAPFFVLDEIDAALDNTNIGKVASYIRDHTTNLQTIVISLKEEFYGHADALVGITPGEGDCLVSNVYIMDLTTFEDT
modifications: [35S]methionine label
For B3, the binding entry in assay [1] is given as “binds”.

B4: in vitro translated PP2A regulatory subunit PP2A-29B (protein, UniProt P36179 1-591)
chain: MAASDKSVDDSLYPIAVLIDELKNEDVQLRLNSIKKLSTIALALGEERTRSELIPFLTETIYDEDEVLLALADQLGNFTSLVGGPEFAMYLIPPLESLATVEETVVRDKAVESLRTVAAEHSAQDLEIHVVPTLQRLVSGDWFTSRTSACGLFSVCYPRVTQPVKAELRANFRKLCQDETPMVRRAAANKLGEFAKVVETEYLKSDLIPNFVQLAQDDQDSVRLLAVEACVSIAQLLPQDDVEHLVLPTLRQCASDSSWRVRYMVAEKFVDLQKAVGPEITRVDLVPAFQYLLKDAEAEVRAAVATKVKDFCANLDKVNQVQIILSSILPYVRDLVSDPNPHVKSALASVIMGLSPMLGAYQTVEQLLPLFLIQLKDECPEVRLNIISNLDCVNDVIGIQQLSQSLLPAIVELAEDSKWRVRLAIIEYMPALAGQLGQEFFDQKLRGLCMGWLNDHVYAIREAATLNMKKLVEQFGAPWAEQAIIPMILVMSRNKNYLHRMTCLFCLNVLAEVCGTDITTKLLLPTVLLLAADPVANVRFNVAKTLQKISPFLEASVIDAQVKPTLDKLNTDTDVDVKHFAAQAIAGIAAA
modifications: [35S]methionine label
As to B4, the binding entry in assay [1] is “no binding”.
